# Results reported in the supplement of paper PMC3334620.
# In all, about 33,000 sequences were measured (“E-score (-0.5 to 0.5)”: median about -0.011, highest 2% from about 0.28 on). This is one part of the list.
# Molecular target: T1, Gcr1 (UniProt P07261)
# T1 sequence: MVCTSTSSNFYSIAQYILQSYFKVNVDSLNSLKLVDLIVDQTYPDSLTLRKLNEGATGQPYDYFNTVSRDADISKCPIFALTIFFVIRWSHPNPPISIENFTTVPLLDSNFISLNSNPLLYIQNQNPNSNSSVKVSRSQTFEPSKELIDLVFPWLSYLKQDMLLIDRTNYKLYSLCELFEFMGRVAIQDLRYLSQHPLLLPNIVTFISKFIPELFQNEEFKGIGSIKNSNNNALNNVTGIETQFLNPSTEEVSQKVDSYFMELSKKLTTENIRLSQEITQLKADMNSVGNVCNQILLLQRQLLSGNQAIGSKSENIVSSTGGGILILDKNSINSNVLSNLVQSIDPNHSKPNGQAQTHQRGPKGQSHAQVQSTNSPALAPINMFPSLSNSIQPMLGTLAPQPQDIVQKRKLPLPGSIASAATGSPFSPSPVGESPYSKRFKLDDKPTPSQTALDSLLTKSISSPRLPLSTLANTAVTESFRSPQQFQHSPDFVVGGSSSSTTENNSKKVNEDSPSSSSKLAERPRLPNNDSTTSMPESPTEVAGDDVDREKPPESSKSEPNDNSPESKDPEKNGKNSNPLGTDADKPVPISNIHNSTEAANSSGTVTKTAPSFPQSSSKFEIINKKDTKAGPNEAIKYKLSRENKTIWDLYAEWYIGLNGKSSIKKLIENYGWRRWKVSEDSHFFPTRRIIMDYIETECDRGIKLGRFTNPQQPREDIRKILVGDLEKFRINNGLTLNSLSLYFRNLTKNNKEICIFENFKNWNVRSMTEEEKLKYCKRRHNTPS
# Assay: PBM E-score (8-mer binding enrichment) (E-score (-0.5 to 0.5)); higher = stronger / more preferred TF binding; most listed sequences are background and not binding sites
# Conditions: protein concentration: 100 nM; construct: GST-full length
# How it was run: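 For each ungapped eight-base word taken together with its reverse complement, the Universal PBM Analysis Suite assigned an E-score. Binding data came from GST-tagged yeast transcription factors, applied at about 100-200 nM, on universal all-10-mer Agilent arrays made double-stranded by primer extension. Fluorescent anti-GST marked bound protein, and scans were normalised with masliner.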
row,Sequence,PBM E-score
1,GAGTCGAA,-0.107
2,TCCTAGGA,0.228
3,ACTTTACC,-0.127
4,TGGGATAA,-0.0747
5,TATGCACA,-0.0979
6,GGCGCGTA,0.279
7,GATATTCC,0.0186
8,CGCATATA,-0.00312
9,CCCCCCTA,-0.13
10,CATTGAAC,0.0331
11,ACCTCAAG,-0.121
12,TAAAGTAA,-0.0967
13,AATGACAT,-0.0777
14,AGCGTCAC,-0.078
15,CTTCATGC,-0.211
16,GTTCTATA,0.0625
17,AGATCAGG,-0.0936
18,CTTGACCC,-0.141
19,AAGTGACG,-0.0426
20,GAAAGTAA,-0.0143
21,ACCGCCAG,-0.0205
22,CGCTAAAA,0.186
23,GTGCGCAC,0.0714
24,CCCATAGA,0.0813
25,AAGAGCAA,-0.112

row,Sequence,PBM E-score
1,ACATCGGT,-0.0758
2,GTAAATTA,0.0604
3,CAGGCCGC,0.139
4,ACCTTCAG,-0.0589
5,ACAGACTA,-0.106
6,ACCAGAAG,0.262
7,TGGTTACA,0.0493
8,ATACCTTC,0.00478
9,CACACGAA,0.0208
10,CTTCTTTA,0.108
11,AAACCCGC,-0.114
12,ATGGACTA,-0.178
13,CGTATGAA,0.196
14,ATGCAATC,-0.0826
15,ATTCCAAT,0.299
16,AAGGCGCG,0.094
17,ATGCCGAG,-0.0514
18,CCGGCTCA,0.0479
19,CTCGATTC,-0.0227
20,GCAAGTAA,0.0429
21,ATCTGTCA,-0.0824
22,AACCGAAT,0.0679
23,CGGGTGGA,-0.0523
24,TCGGTTAA,0.01
25,AAATATCC,-0.0141

row,Sequence,PBM E-score
1,ACGCCGAC,0.0534
2,CTGCGAGC,-0.0142
3,ATGGCTTC,0.3
4,ACTGAGAC,-0.074
5,ATTACGCC,0.0413
6,ACGTGGGC,-0.121
7,GCAGGCTA,-0.321
8,CTGCCGGA,0.0835
9,CACCTTGG,-0.138
10,AAATTGGT,0.226
11,ATCTTCAG,0.133
12,GTGTGGCA,-0.134
13,ATTTCCGG,0.158
14,CACAGGTA,0.0365
15,CTACCTAC,0.0735
16,GTGGAACA,0.0401
17,CTGCCGGC,0.0388
18,AGAGGAGA,0.0687
19,CAACGAAC,-0.0633
20,AGAAATTA,0.0854
21,CAAGCGGG,-0.0978
22,AACTACTT,0.0473
23,GGGGTCAC,-0.0641
24,CAATAACC,-0.016
25,ATGCCGGA,0.215

row,Sequence,PBM E-score
1,TAAGGGTA,-0.223
2,GGCCGGTA,-0.0895
3,TCTCCCCA,0.111
4,TACCCACA,0.00706
5,GAAACAGA,0.157
6,CCATATCG,0.05
7,ACTAAGCC,-0.0696
8,TAGATTGA,-0.00461
9,ACCCTTCA,-0.0713
10,CCTTATAG,0.152
11,ACTAATAG,0.24
12,GTACTGTA,-0.125
13,ATGGCGAC,-0.135
14,TCGGTCCA,-0.191
15,AAACTGAC,-0.0167
16,GATTTTCC,-0.0907
17,CTCTTCAA,0.00436
18,ACGAACTA,-0.0557
19,CTACGGTA,-0.0495
20,CCCGTTAC,-0.0381
21,TCGTCAAA,0.234
22,AAACACAG,-0.0882
23,AGCGAAGA,-0.188
24,AAGCTCCG,0.00534
25,AAACTGCT,-0.128

row,Sequence,PBM E-score
1,GAAGAAGA,0.183
2,CTGCTGTA,-0.0386
3,GAGATGTA,-0.064
4,CCTGCTTA,0.00991
5,CGGGGTGC,0.226
6,AAACTGTC,-0.167
7,CTTGTTAA,0.114
8,AACTGCCT,-0.0496
9,CGTACGAA,-0.119
10,ATCCCCTC,0.156
11,ATACAGAT,0.106
12,AAGTTACC,0.147
13,CCGGCCCA,-0.128
14,CTACGAAC,-0.107
15,CCCGATAC,0.101
16,GTGCCAAA,0.113
17,AAATATCA,0.11
18,AAGGGTTG,-0.087
19,CTCGCATA,0.0987
20,ACTAGTCA,-0.238
21,GAAACGTC,-0.159
22,CTATTAGA,-0.0419
23,CCAATAGG,0.149
24,ATGGTCTA,-0.0848
25,TCTGAACA,0.0984

row,Sequence,PBM E-score
1,AACGGACG,0.15
2,CGCGGCGA,-0.0356
3,AGCCGGGA,0.125
4,ATGTCAGC,-0.0842
5,ACGGTTCT,-0.00189
6,ATGTTCTC,-0.285
7,CTACTTTC,0.263
8,GTTAATTA,0.0274
9,CTTTAACA,0.103
10,AGAGTGAT,-0.112
11,CGGCGAAC,-0.078
12,TGATGCCA,-0.0459
13,CGGTTGTA,-0.121
14,ATTCAAAA,0.123
15,AAAATAAA,0.069
16,GTGTGCGA,-0.112
17,CGGTCGAC,-0.0972
18,GTTGAGGA,0.00766
19,AGTTATGA,0.0673
20,ATCGAGTA,0.0934
21,CTTTGTGC,-0.0221
22,TCCACTCA,0.189
23,CCGCATTA,-0.073
24,ATACCCTC,-0.152
25,AATGCAGC,-0.167

row,Sequence,PBM E-score
1,GGGGCATA,-0.0439
2,ACCAAAAG,0.033
3,CCGGATAG,-0.0981
4,GACTCTAA,0.0472
5,AGTATTCA,-0.062
6,TCATCCCA,-0.0573
7,CCAGTAAA,0.189
8,TAATTTCA,0.179
9,CCTGGGCC,-0.105
10,AGGCTGCG,0.138
11,CGCGGTAC,-0.0822
12,TACATCCA,0.0312
13,TCATAAGA,-0.105
14,ACCGAGTG,0.0115
15,ACTGGCGG,0.0575
16,GTAAGTCA,-0.0235
17,CTAGGTGC,0.136
18,ACAGAGAA,-0.134
19,CGGCCGAC,-0.197
20,TATTGAGA,-0.00228
21,ACCGGCGG,-0.00673
22,CCTTTAAG,-0.0224
23,CGACCGGA,0.0225
24,GTGGAAGA,0.172
25,GCATCAAC,0.15

row,Sequence,PBM E-score
1,AAAATTTA,0.124
2,CCTGTAAG,0.0417
3,ACTTCCCA,0.0658
4,ACGCCCGA,-0.131
5,CGAAAAAG,0.169
6,ACCAGGGA,-0.175
7,CCGGGGAG,0.0389
8,ACTAGAAT,0.257
9,AACTATGT,0.00327
10,AATCAAGT,0.0987
11,ACACGACG,0.267
12,ATTTGTCA,0.0547
13,ATGTAAGA,-0.0496
14,ACTTCCAA,0.303
15,ATGCACAT,-0.0442
16,CCGTAACA,-0.0541
17,CGGCTGGC,-0.174
18,AGTACAGG,0.108
19,GCGAAAGC,-0.198
20,ATAATGTC,-0.0336
21,AGCATTTG,-0.11
22,AAAGAAGG,0.0997
23,AAGGGCTC,-0.24
24,AATTGTTG,-0.00613
25,CACTCATA,0.0527

row,Sequence,PBM E-score
1,CGATGCCA,0.156
2,ACAGATTG,-0.226
3,GATAAAGA,0.011
4,CAAACCGC,-0.274
5,ACGCGCAA,0.0925
6,GTGACTCA,-0.118
7,GCAGTCAC,-0.224
8,ACCACCTG,0.0943
9,AGAATTGG,0.0667
10,CCGGAAAA,0.127
11,CGATATAA,0.044
12,CCATCCGG,-0.0299
13,ACCAATGC,-0.254
14,ACCCTTCG,0.198
15,ACTTCAAA,0.00813
16,CAAAGTAA,0.187
17,AATTTGGA,0.263
18,ACTTTCGG,0.031
19,AACGATTC,0.0439
